53 compounds from PubChem BioAssay AID1347073 (National Center for Advancing Translational Sciences (NCATS), 2019) can be followed below.

Among all 45,000 compounds or so, about 200 (0.44%) were called active. Not shown: some 7% with an inconclusive outcome. Calls follow the shape of the dose curve; as a rule, active = well fitted activation curve with a large enough effect; inconclusive = small, poorly fitted or top-dose-only effect; inactive = no such curve, though single readings can be large or run the other way. The list shows a part of the results.

This test in a line: qHTS of TDP-43 Inhibitors: NCGC Sytravon Library Screen. Also: 0% is about no effect; nearly all actives have a fitted effect of over 55% in size. To be noted: yeast TDP-43 toxicity rescue, BacTiter-Glo growth, 24 h; series mostly up to 46.1 µM; growth rescue (activation): at the top concentration. The method in brief:
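TDP-43-expressing yeast, pregrown in raffinose, seeded at OD600 0.02 in galactose medium with compound for 24 hr at 30 deg C. Growth read by BacTiter-Glo luminescence, so rescue of toxicity appears as activation.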
In general terms: qHTS replaces the single test concentration by a dilution series.
For `COc1ccc(C(=O)OCC(=O)NCCN2C(=O)CSC2=O)cc1[N+](=O)[O-]`, the “growth rescue (activation)” value is inactive: -11.6%.
The figure for `Cn1c(=O)c(C(=O)COc2ccc(F)cc2Cl)c(N)n(Cc2ccccc2)c1=O` is inactive: 4.49%.
Take `O=C(/C=C/c1ccccc1Cl)N(Cc1ccc(Cl)cc1)C1CCS(=O)(=O)C1` (stereo not drawn): the “growth rescue (activation)” value is inactive: -15.6%.
In the case of `COc1ccc(CCNC(=O)c2cc3c(=O)n4cccc(C)c4nc3n(Cc3ccco3)c2=N)cc1OC` it was inactive: -8.93%; in that of `Cc1ccc(S(=O)(=O)CC(=O)Nc2nnc(C)s2)cc1`, inactive: 3.17%.
In the case of `CC(Oc1ccccc1Cl)C(=O)Nc1ccc(S(=O)(=O)N2CCN(C)CC2)cc1` (stereo not drawn) it was inactive: 14.4%; in that of `Cc1noc(NS(=O)(=O)c2ccc(N/C=C\C(=O)c3cccs3)cc2)c1C`, inactive: -18.2%.
For the compound `Cn1cnnc1SCC(=O)NNC(=O)c1ccc(Cl)cc1`, the “growth rescue (activation)” value is inactive: -2.11%.
The figure for `COc1ccc(CCN(C)C2CCCN(C(=O)c3ccnn3C)C2)cc1OC` (stereo not drawn) is inactive: 8.83%; for `Cc1ccc2c(c1)C(O)(C1COC(C)(C)CC1=O)C(=O)N2C` (stereo not drawn) it is inactive: -4.89%.
Consider `N#Cc1ccsc1NC(=O)COC(=O)c1cc(Br)ccc1O`, for which the “growth rescue (activation)” value is inactive: 0.171%.
In the case of `O=C(Nc1ccc2c(c1)OCO2)c1csc([C@@H]2O[C@H](CO)[C@H](O)[C@H](O)[C@H]2O)n1` it was inactive: 12.9%; in that of `CCOC(=O)C1(CCc2ccccc2)CCN(C(=O)c2cnc(C)cn2)CC1`, inactive: 12.7%.
The figure for `Cc1[nH]n(-c2ccccc2)c(=O)c1N=Nc1ccc2c(c1)OCO2` is inactive: 4.16%; for `Cc1ccc(CC(=O)Nc2ccc(F)c([N+](=O)[O-])c2)cc1C` it is inactive: 18.3%; for `COc1ccc(NC(=O)C2(S(=O)(=O)c3ccc(C)cc3)CC2)cc1OC` it is inactive: 0.969%.
As to `COc1ccc(CCn2c(=N)c(C(=O)NCc3ccco3)cc3c(=O)n4cccc(C)c4nc32)cc1`, the “growth rescue (activation)” value was inactive: -5.28%.
For `COc1ccc(-c2cc(C(=O)NC3CCCCC3)no2)cc1OC`, the “growth rescue (activation)” value was inactive: 8.07%.
The figure for `COc1cc(/C=C/C(=O)NCC(=O)N2CCC(N(C)CCN3CCOCC3)CC2)ccc1OC(C)C` is inactive: 6.68%; for `COc1ccc2nc(C)cc(SCC(=O)NNC(=O)COc3cccc4ccccc34)c2c1` it is inactive: 7.3%; for `Cc1ccc(NC(=O)C(c2ccc(Cl)cc2Cl)N2CCCC2)cc1` (stereo not drawn) it is inactive: 15.8%.
The figure for `O=C1NCC(COc2ccc(Cl)cc2)O1` (stereo not drawn) is inactive: 2.59%; for `O=C(O)Cn1nnnc1SCC(=O)Nc1ccc(F)cc1F` it is inactive: 10.6%; for `Cc1cc(C)nc(NC(=O)Cc2cccs2)n1` it is inactive: 4.58%.
For `CCCS(=O)(=O)NC(=O)C1(C)CCN(C(=O)c2cc(F)cc(F)c2)C1` (stereo not drawn), the “growth rescue (activation)” value is inactive: 7.58%.
In the case of `CNC(=O)C1CC(=O)N(c2ccc(OCC(=O)Nc3ccc(F)cc3)cc2)C1` (stereo not drawn) it was inactive: 13.6%; in that of `COC(=O)c1ccccc1OC(=O)c1cc2ccccc2oc1=O`, inactive: 14.4%; in that of `CCNc1nc(NC(C)(C)C)nc(N2CCCCC2)n1`, inactive: -13.2%.
On to `COc1ccc(NC(=S)NCc2ccc3c(c2)OCO3)cc1`, for which the “growth rescue (activation)” value was inactive: 25.2%.
In the case of `COc1ccc(OCCN2CCN(C(=O)c3ccc(OC(F)F)c(OC)c3)CC2)cc1` it was inactive: -2.86%; in that of `CCc1nc2c(OCC(=O)c3ccc(F)cc3)cccn2c1N(C)C(=O)c1cccs1`, inactive: 19.9%.
Turning to `Cn1c(-c2ccc(F)cc2)cnc1SCC(=O)NNC(=O)Cc1ccccc1`, the “growth rescue (activation)” value is inactive: -11.5%.
The figure for `Cc1ccc(N(C(=O)c2csnn2)C(C(=O)NC2CCCC2)c2ccncc2)c(C)c1` (stereo not drawn) is inactive: -13%; for `Cc1cccc(OCC(=O)Nc2ccc3oc(=O)ccc3c2)c1C` it is inactive: 9.29%; for `Cc1ccc(/C=N/NC(=O)c2ccncc2)cc1` it is inactive: 6.88%.
In the case of `Nc1nc(SC2c3cccc4cccc(c34)C2NS(=O)(=O)c2ccccc2)n[nH]1` (stereo not drawn), the “growth rescue (activation)” value was inactive: 14.1%.
The figure for `Cc1ccc(NC(=O)c2nc(S(=O)(=O)Cc3ccccc3)ncc2Cl)cc1` is inactive: -79.5%; for `CCCN1C(=O)/C(=c2\sc3nc(=O)c(Cc4ccc(C)cc4)nn3c2=O)c2ccccc21` it is inactive: -26.8%; for `CC(=O)Nc1ccc(SCc2csc(C)n2)cc1` it is inactive: 9.8%.
In the case of `COc1ccc(-c2nn(-c3ccccc3)cc2/C=N/NC(N)=S)cc1OC` it was inactive: 9.2%; in that of `NC(=O)CSc1n[nH]c(-c2ccco2)n1`, inactive: 0.938%.
The figure for `Cc1cc(C)c(S(=O)(=O)Nc2ccc(N(C)C)cc2)c(C)c1-n1cnnn1` is inactive: 1.22%; for `CC(C)Cc1nc(NCCN2CCOCC2)c(C#N)c2c1COC(C)(C)C2` it is inactive: 9.8%.
Take `O=C(CNC(=O)c1ccccc1)Nc1cccc(C(F)(F)F)c1`: the “growth rescue (activation)” value is inactive: 27.1%.
The figure for `CCOC(=O)C1=C(C(F)(F)F)Nc2ncnn2C1c1cccc(OC)c1OC` (stereo not drawn) is inactive: 0.475%; for `CCn1cc(/C=N/NC(=O)COc2cccc3cccnc23)c2ccccc21` it is inactive: 13.1%; for `Cc1ccc(-c2nc(CN3CCN(C(=O)C4CCCO4)CC3)cs2)cc1` (stereo not drawn) it is inactive: 10.7%.
In the case of `Cc1ccc(CNC(=O)COc2ccc(C)nc2[N+](=O)[O-])cc1` it was inactive: 5.89%; in that of `COc1cccc(NC(=O)COC(=O)c2ccc3ccccc3n2)c1`, inactive: -6.07%; in that of `CCNc1nc(N2CCCC2)nc(N2CCCC2)n1`, inactive: 4.2%.
On to `COc1cc(NC(=O)CSc2ncnc3sc4c(c23)CCCC4)c(C(=O)O)cc1OC`, for which the “growth rescue (activation)” value is inactive: 21%.
In the case of `O=C(c1ccc(Cl)c(S(=O)(=O)N2CCOCC2)c1)N1CCCC1`, the “growth rescue (activation)” value was inactive: 17.7%.
In the case of `CC(=O)Nc1ccc(S(=O)(=O)Nc2ccc3c(c2)OCO3)cc1` it was inactive: 4.59%.
